Test results taken from the supplement of paper PMC10126150.
Sequences with one replicate were seen in a single cluster, so their values are uncertain.

Tested on: ATP
Experiment: switch fluorescence ratio, 500 uM ATP over buffer (Cy3 cluster intensity, sum of 5 cycles each) (fold (ratio)); higher = stronger signal-on switching upon ATP binding; sequences stand for … in TCGTCGGCAGCGTCAGATGTGTATAAGAGACAGTTTTTTTTTTTTTTTTTTTTTTTTT…TC
Settings: aptamer strand: ATP DNA aptamer (quencher-CACCTGGGGGAGTATTGCGGAGGAAGG + anchor), 100 nM annealed; ATP concentration: 500 uM; one replicate
Summary of the method: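 Exposure to 500 uM ATP lasted 15 min at 22 °C before imaging, and a selection-buffer image was taken beforehand, for Cy3-labelled switching-strand clusters on a modified Illumina MiSeq flow-cell annealed to 100 nM quencher-labelled ATP aptamer. Five buffer/ATP cycles were run with NaOH stripping and re-annealing between them. The fluorescence ratio per cluster is summed target-cycle over summed buffer-cycle Cy3 intensity, averaged per switch-domain sequence. Clusters outside 100-1000 RFU were excluded.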

Sequence | switch fluorescence ratio
AGTCCTTCAT | 1.14
TTTGACCCTT | 1.08
GGAGTAGGTG | 0.985
ATTGCTTGCT | 0.992
CTGGTACTC | 1.12
CCAAGCCGCG | 1.09
TAAGGTGGGC | 1.01
GTGTGTAGTT | 0.987
AGCTAATCGC | 1
CGAATGAGTT | 0.944
GTAATGGATG | 1.01
CTAGAGACCA | 1.02
AGTGGATGTC | 1.05
ACTTATTCTG | 1.03
CCCAATGTCC | 1.78
CGGCACACCA | 1.1
TTCAACGCAT | 1.54
TAGTACAGC | 0.987
GATAGTTACC | 1.04
TGGTTATCTG | 0.999
AGATAGATAG | 0.957
TTGTGGGCAC | 1.05
CTACAGCGCG | 0.964

Sequence | switch fluorescence ratio
ATCGTCGTT | 1
CGGACCTCT | 0.952
CATATGAAG | 1.02
CAATGAGACC | 1.07
GGACAATTTA | 1.02
GGTGTCGAGG | 1.02
CCCCCATGGG | 1.6
ATTTTAACTC | 0.958
TTTCGCTTGG | 1
CAATTAGCAG | 1
GAACATCAGC | 1.04
GGACCAGTGA | 1.05
AGATATGCCT | 0.952
AGGTCGTGCG | 0.981
TCCTCCATAT | 3.11
GATGTCTCGC | 0.962
CCCAAGAGGC | 1.02
GCTGGCCCGC | 0.955
GTCTTCGCTG | 1.05
AAAATAAGAC | 1.06
TGGTCACACG | 0.979
AGCTGCGGAT | 1
CTCGGGGGG | 1.04

Sequence | switch fluorescence ratio
TGACGTTGGC | 1.03
TGTTATTCCC | 1.07
GATTTATAGT | 1
AGATGTGTGC | 1.03
CTAGCCACTT | 0.996
TGCGAGTCTG | 0.974
TTCCCAGAAT | 1.69
CGAGTGTGTC | 1.06
AGGCGGCAAC | 1.06
TACTATCACT | 1.02
TATAACATTC | 1.04
GGGAGGTTTA | 1.02
CTAGAGGGC | 1.02
CTGGGTGGTG | 0.987
CTGTATTTAA | 0.978
AGGTAATGTA | 0.993
GTTGATTGGT | 0.952
ACGCTAACTA | 1.3
GACGAGAGT | 1.03
GCTGACTGTT | 1.01
CGCCGACTT | 1.01
GTATCCAGCC | 0.955
TGCCGGGTGC | 1.06

Sequence | switch fluorescence ratio
AGTGCGTACA | 1.02
CAAGTCGCCA | 0.994
CTACCTTCTG | 1.2
TTAGCACAGC | 1.01
AGCGGGACCC | 1.04
TGACCCCGTG | 1.04
CTTTATGTAT | 1.02
CAGTCGACGC | 0.979
GGGTGATGAT | 1.05
CGGCTTTAGG | 0.995
TATGCCAGAA | 0.962
TACGCCCCTC | 1.23
TAATCGGTCC | 0.962
CCATAAAATC | 0.997
CAGGTTCTT | 0.946
ACGAAAGGCC | 1.03
CAAACGGGAG | 1.03
TTAAAGAGTC | 1.05
TCAACATGCA | 0.99
AATCTTTTTT | 1.02
ATATTCGTCT | 1.05
GAGAAAGAA | 0.995
ACCAGTATGG | 0.979

Sequence | switch fluorescence ratio
ACCTGTTAGC | 1.01
ACTGCCCTGG | 2.03
GCCACAAGCT | 1.07
TATAACGATT | 1.01
ACGTGGATGG | 0.966
ATTTTCCGGG | 1.05
CAAGCATCTC | 1.26
TGACGAAGTA | 0.998
CCACTCGAAA | 1.28
GATGTTGAGT | 0.978
GGACATAAGC | 0.979
CAGCGAGCTG | 0.998
TGCCCGATTG | 1.02
CCACATTGAC | 1.37
CCGGAGGCCT | 1.1
GCAAGAGAAG | 0.952
GGTGACGGTC | 0.981
CAGGGACGAT | 1.01
ATGGTAATAC | 1.61
CTCTTCGGTG | 1.01
AAGCAAAAGA | 1.04
CTAAGCTGTG | 0.989
TCAGGATAGT | 1

Sequence | switch fluorescence ratio
AAGGGTGGA | 1.05
GTACCAAGGG | 1.12
GCCGAGTCGG | 1.03
TAGAACATCG | 1.04
ACAAATCTAT | 1.06
TCGTACTCGC | 1.05
TCAGCTAAAG | 1.01
CTAGATCCGC | 1.48
TTTCACGGGT | 1.01
TGGGAGGGAC | 0.978
AGTTCTTCAT | 0.996
TATCAGGCGT | 1.05
GGGCCACAGT | 1.01
TAGCAATCT | 3.37
AAACATGAGC | 0.986
GGCGACCAGG | 1.03
ATGAGGTATA | 0.999
CATTTTCAGG | 0.981
CTGTGATTAC | 1.52
AGGGTCACGG | 0.981
TTCCTGATCC | 0.982
TTTGATTGTC | 1
GGCGGTGGGG | 1.04

Sequence | switch fluorescence ratio
CGTGCACCC | 0.991
ACGCCCTCGC | 1.28
ACATCAAAGT | 1.01
GACTTTAGTG | 0.983
TATATGATAG | 0.995
CCATAAGATA | 1.01
ATCGAGATTT | 0.98
CCGTGGGCGA | 1.35
CGGTGAGTCT | 0.984
CGAGTTGTAG | 1.01
GGACACGTTT | 0.996
AAGAAAGTTC | 1.71
CGACGGACTG | 1.07
TATCCACCGA | 1.39
GCGGTGGGCG | 1.04
TACATTGGTT | 0.962
ATTGGCGGGC | 1.01
AGCTGCCCGG | 1.04
GTGATGTGTG | 0.976
